Read counts are not given, so values of variants with three or more changes are uncertain.
B1: LINE1-mini (parent)
chain: GGCAGAGCUCAACACAGCGUGGCAAAGUGGCUGUGGCUAGACUGCC

Variants of: B1
Assay: self-cleavage, relative activity (ratio to wild type); higher = more cleavage; in vitro, sequencing; the parent is a self-cleaving ribozyme

| Variant | self-cleavage |
| --- | --- |
| U34G C37A U43A | 0.09 |
| G2C A11U A39U C45G | 0.01 |
| G5U G35C C46U | 0.14 |
| C3G A11C G17A C23U G40C | 0.01 |
| C13U U34A A41U | 0.08 |
| G2A G5U C10A A12G G44U | 0.03 |
| C8U G27C G33A G35U | 0.03 |
| C10G C15G G30A U32G A39U G40C | 0.01 |
| C8A C15U G44U | 2.21 |
| G21U U34C U38A | 0.22 |
| G5U G7C U9G A39C A41C | 0.03 |
| C10U A25U A39G G44C | 0.03 |
| A16C G21U G35U | 0.02 |
| A4U G5A G7C A14C C15A A26U G40U | 0.04 |
| A6G G22A C37A | 0.08 |
| G1A G17A G21A U38A | 0.11 |
| C8A C15U G27U U38A | 0.15 |
| C10U A12U C18A G35C G36C | 0.01 |
| G5C C15U U32G | 0.03 |
| G2U A25C U32G U38G | 0.01 |
| G7A U9C C15U G17U C18U G19C G21C A25U G36C | 0.02 |
| A4G C10U G36A G44A | 0.07 |
| G1C G5U U34C C45A | 0.01 |
| G36C C45U C46A | 0.22 |

| Variant | self-cleavage |
| --- | --- |
| C10G C13G G30C G35U | 0.01 |
| A4U A24G A39U | 0.07 |
| G1A A4C C31U | 0.01 |
| C15G G22A G33C G35U | 0.02 |
| G2C C3A A26G U32G | 0.03 |
| G5U G7C C31G | 0.01 |
| G7C C10U C18A G30U C37U | 0.07 |
| G7A U34C A41C C42G | 0.11 |
| A6C A16G C31U | 0.06 |
| A12C A16C G29A A41C | 0 |
| G5C A41G C45U | 0.04 |
| C8A A25C G40A | 0.06 |
| C13U A16G G40A | 0.02 |
| G2U G29U C37U G40U | 0.02 |
| C8A C18A A26G A41C C45A | 0.07 |
| G19A U20C G30U G33A | 0.44 |
| G1A U9A G21A A26U | 0.26 |
| C10G U28A G36C | 0.02 |
| C3A A26C U32C U34C C46G | 0.1 |
| C18A G19A C31A U32A G44C | 0.03 |
| A12C C15U C18A U28A G44U | 0.01 |
| C13U G19C A24U G27U | 0.06 |
| G5A C15A G29C G44U | 0.02 |
| U9G G29A A39C G44C | 0.02 |

| Variant | self-cleavage |
| --- | --- |
| A25U A26G U32G | 0 |
| G7U G19A U20C A26U | 0.03 |
| G1U A24G G27C | 0.17 |
| C13A G21C C31G G36U G40A | 0.02 |
| G1U G30C C46A | 1.33 |
| C10U G29U G33A | 0.03 |
| C8U C31G G35A | 0.05 |
| G7U G19U G36C | 0.08 |
| G2C C8A C10U C23A | 0.06 |
| G33U C42U U43G C45U | 0 |
| A4G G7C A14G U28A U38A | 0.43 |
| A14C C18A A25U U43G | 0 |
| C3U C18A G22C G27A A39C | 0.85 |
| A6G G36U C37U | 0.01 |
| G1A G2C G29A G35C C46U | 0.13 |
| C18G C42G G44U C45G | 0.04 |
| A16G G22U G27U U34G A41G | 0.01 |
| G1A G7U A24C G27A | 0.57 |
| G1U U20A U32A A39G G44A | 0 |
| A4C C23A G33U A41U | 0.07 |
| C10U C13G G21A A25U | 0.12 |
| G7A U32G C42U C45G C46U | 0.05 |
| C10A C31U G33U A39C | 0.01 |
| C3G C10A G30U | 0.03 |

| Variant | self-cleavage |
| --- | --- |
| A6U A16G G30C | 0.24 |
| C13U C15A U43G | 0.03 |
| A4G A16G U43A | 0.18 |
| A12G G33A C37G C42A | 0.03 |
| G19C G21C U28G | 0.2 |
| G27C U28C G33U C46U | 0.41 |
| G7U A16C C31G | 0 |
| G27A U28C G29C G44U | 0.05 |
| G7U C31U C37A | 0.01 |
| G30A U34A G36C | 0.02 |
| C13A G27C G29C G44A | 0.02 |
| G36A C37A C42G | 0 |
| C8G A24U C31U | 0.1 |
| G1A A11G G33U | 0.02 |
| A16G C18A G22U | 0.43 |
| C3U C18G U38C C42A | 0.04 |
| C10G A11G G21U C31U C42U | 0.01 |
| G7U C31A G35A G44U | 0.06 |
| G5U G7U C8U G17U C31G | 0.2 |
| A16U U20A G36U | 0.02 |
| A14U A16U C18A A24U C42U | 0.04 |
| G5A U20A G36U A39G C46A | 0 |
| U20A G21C C23G C46G | 1.15 |
| A14U A41U G44A | 0.05 |

| Variant | self-cleavage |
| --- | --- |
| A14U C31A U38G A41U C46A | 0.05 |
| A4C C10G C42G | 0.01 |
| C13U C31A A39U | 0.06 |
| G7U A14U G33U C37G | 0.05 |
| A6G G17A G40A | 0.06 |
| A14C C37A C42U U43C | 0.07 |
| A4G A11C C23U A26C | 0 |
| A11G G22A U43C | 0.02 |
| C13U A16C C18A | 0.1 |
| A6C G21A C23A G40U | 0.16 |
| G1C C3U A16U | 0.02 |
| A6U G29U C46G | 0.81 |
| A4C A6U A39C C45A | 0.03 |
| A6U C10A G35U | 0.02 |
| A6G C10A G17C G35A | 0.01 |
| G1A C3G G36U U38G A39U | 0.47 |
| G27U U28C G30U C31U G35C | 0.03 |
| A6G C18A C31U G44U | 0.08 |
| C23G G33A U38G | 0.05 |
| A25U A39U U43G G44U C46U | 0.03 |
| G21A C31G U32A G33U | 0.07 |
| C3U U38C C45A | 0.71 |
| U38G A41G C45A | 0 |
| G5A A24G U32A A41U | 0.06 |

| Variant | self-cleavage |
| --- | --- |
| A4G G19U U20C G30U | 0.28 |
| C13U A24G C42A | 0.06 |
| A11U C15A G27U | 0.01 |
| A6G A14U C45U | 0.05 |
| C3G G35U C45G | 0.05 |
| C15A A26U G27C | 0.05 |
| A24C C37U U43A | 0.06 |
| G1A C8A A11U A39C G40A | 0.03 |
| U9G A25C A39U C46G | 0.02 |
| G2U C3U A26G C37G G40U C46A | 0.05 |
| A4U C10A A11C G17U | 0.07 |
| G17A G29C G30U C37U C42U C45A | 0 |
| C13G G21C G40A | 0.05 |
| G5U U34A G40C | 0.04 |
| G7U A11C C13A G17U A39U | 0.01 |
| G27A U28G U38G | 0.05 |
| C3U A24G U34A U38A | 0.06 |
| G1U C3G G5U U38A | 0.05 |
| A14U G33C C46A | 0.03 |
| C18A G35U C46U | 0.04 |
| C8A A25G C42G | 0.19 |
| G5C G17A C31G G36C A41U C45A | 0.06 |
| C3A C37U C46A | 0.2 |
| G2A A4G G33C A39C | 0.03 |

| Variant | self-cleavage |
| --- | --- |
| C10A C37U U38C A41U | 0 |
| G2C A25U G35C U43A C45A C46U | 0.08 |
| G1U G17U C37U | 0.05 |
| C3A C10G C23A G36C U38C G40C | 0.01 |
| G1A C10A A41U | 0.02 |
| G2C C8G A12U G30U G36U | 0 |
| U9A C15G G19U C31A G35C | 0.11 |
| C8U A12G G22A C45U | 0.02 |
| G2C G19U G22U | 0.23 |
| C8G G27C C37U | 0.01 |
| G7U A16G U34C A41G | 0.05 |
| C3U C10U C31A | 0.04 |
| G1A G5A C10U A12U C18G G22C A39U U43A | 0.16 |
| A24U A26U G35A G40U | 0.01 |
| C3A G7U U9G C31G | 0.16 |
| G2U C3G A14G | 0.09 |
| A6U U9A C10A G36C | 0.03 |
| A6G G19C C23U A26U G40A | 0.02 |
| A6C G7U C13A G30U | 0.07 |
| C3A U20G G40C C45G | 0.09 |
| G5U G19U A24G C37A | 0.11 |
| C15A G17C G19A | 0.03 |
| C18U A26G A39U | 0.08 |

Source: the RNAGym collection of RNA variant scans (doi:10.7554/elife.90254)
